Measurements as given in the supplement of paper PMC8728848.
The list shows a part of the results.

How the values were obtained:
Assay in all cases: glycan array binding signal (z-score within array); higher = stronger binding
Settings in all cases: glycan notation: IUPAC condensed, linker removed
[1] = target: GlcNAc(b1-3)Gal(b1-4)GlcNAc(b1-3)Gal(b1-4)GlcNAc(b1-3)Gal(b1-4)GlcNAc(b1-3)Gal(b1-4)GlcNAc(b1-2)[GlcNAc(b1-3)Gal(b1-4)GlcNAc(b1-3)Gal(b1-4)GlcNAc(b1-3)Gal(b1-4)GlcNAc(b1-3)Gal(b1-4)GlcNAc(b1-6)]Man(a1-6)[GlcNAc(b1-3)Gal(b1-4)GlcNAc(b1-3)Gal(b1-4)GlcNAc(b1-3)Gal(b1-4)GlcNAc(b1-3)Gal(b1-4)GlcNAc(b1-2)Man(a1-3)]Man(b1-4)GlcNAc(b1-4)[Fuc(a1-6)]GlcNAc
Outline: (§1)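 Glycan array data were curated from 3228 arrays in the Consortium for Functional Glycomics database and kept only where the protein sequence was available. Glycan names were converted to IUPAC-condensed notation, and columns mapping to the same glycan were averaged. The binding signal is a within-array Z-score, averaged across arrays of the same protein sequence at different concentrations or buffers and across linkers. Negative Z-scores can be read as non-binding.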

[2] = target: GlcNAc(b1-3)Gal(b1-4)GlcNAc(b1-3)Gal(b1-4)GlcNAc(b1-3)GalNAc
Outline: as §1

[3] = target: GlcNAc(b1-3)Gal(b1-4)GlcNAc(b1-3)GalNAc
Outline: as §1

[4] = target: GlcNAc(b1-3)Gal(b1-4)GlcNAc(b1-3)[GlcNAc(b1-3)Gal(b1-4)GlcNAc(b1-3)]GalNAc
Outline: as §1

[5] = target: GlcNAc(b1-3)Gal(b1-4)GlcNAc(b1-6)[Gal(b1-3)]GalNAc
Outline: as §1

[6] = target: GlcNAc(b1-3)Gal(b1-4)GlcNAc(b1-6)[GlcNAc(b1-3)Gal(b1-3)]GalNAc
Outline: as §1

[7] = target: GlcNAc(b1-3)Gal(b1-4)GlcNAc(b1-6)[GlcNAc(b1-3)]Gal(b1-4)GlcNAc
Outline: as §1

[8] = target: GlcNAc(b1-3)GalNAc
Outline: as §1

[9] = target: GlcNAc(b1-3)Man
Outline: as §1

[10] = target: GlcNAc(b1-3)[GlcNAc(b1-4)][GlcNAc(b1-6)]GlcNAc
Outline: as §1

[11] = target: GlcNAc(b1-3)[GlcNAc(b1-6)]Gal(b1-4)GlcNAc
Outline: as §1

[12] = target: GlcNAc(b1-3)[GlcNAc(b1-6)]GalNAc
Outline: as §1

[13] = target: GlcNAc(b1-4)Gal(b1-4)GlcNAc
Outline: as §1

[14] = target: GlcNAc(b1-4)GlcNAc
Outline: as §1

[15] = target: GlcNAc(b1-4)GlcNAc(b1-4)GlcNAc
Outline: as §1

[16] = target: GlcNAc(b1-4)GlcNAc(b1-4)GlcNAc(b1-4)GlcNAc(b1-4)GlcNAc
Outline: as §1

[17] = target: GlcNAc(b1-4)GlcNAc(b1-4)GlcNAc(b1-4)GlcNAc(b1-4)GlcNAc(b1-4)GlcNAc
Outline: as §1

[18] = target: GlcNAc(b1-4)[GlcNAc(b1-6)]GalNAc
Outline: as §1

[19] = target: GlcNAc(b1-6)Gal(b1-4)GlcNAc
Outline: as §1

[20] = target: GlcNAc(b1-6)GalNAc
Outline: as §1

[21] = target: GlcNAc6S(b1-3)Gal(b1-4)GlcNAc
Outline: as §1

[22] = target: Kdn(a2-3)Gal(b1-3)GalNAc
Outline: as §1

[23] = target: Kdn(a2-3)Gal(b1-3)GlcNAc
Outline: as §1

[24] = target: Kdn(a2-3)Gal(b1-4)Glc
Outline: as §1

[25] = target: Kdn(a2-3)Gal(b1-4)GlcNAc
Outline: as §1

[26] = target: Kdn(a2-3)Gal(b1-4)[Fuc(a1-3)]GlcNAc
Outline: as §1

[27] = target: Kdn(a2-6)Gal(b1-4)GlcNAc
Outline: as §1

[28] = target: Man(a1-2)Man(a1-2)Man(a1-3)Man
Outline: as §1

[29] = target: Man(a1-2)Man(a1-2)Man(a1-6)[Man(a1-3)]Man
Outline: as §1

[30] = target: Man(a1-2)Man(a1-3)Man
Outline: as §1

B1: CC1G-10077 (Coprinopsis cinerea), A8NDT7 (protein)
chain: MALNEGVYWIRNSRFTNKVLDLDAANVAKGTSILDFNEHGTFNENHNQLWIVERFQSRDTYLIRSVHSNLVLDLSQGLSANGTPILCWTQHGGTNQQWRIEWVKDDNKTPLYRIVSVATGTAISHNEDDSSAYTVAWSVDDGPKQLWSFDPFVTPLLYRLRVKSTSRVLDLAAASADNGTLALAWEQHTAITKRNQLWWLPYRSGAEEYTIQCLETSTVADLSGGNSGNGTPIYGWQSHGGRNQQWKFEPTSDSGDYYHIKNVEGGSVMDAYMNDSQKRVGGWSNNGGDNQKWLLDPLPSPGPGWVLIQNGGTGKFLCSTPSGDIGTADGPETVYDYSVQWRFIQREYTGVYHVVNRATGAYLRQIGTSMPSIGLAEENDDELKDWWMLETYDNSEIGLASIISRWTGNVLDHYGGVSVQALDNNTENSYRSWAIIPARDWLTSFSLVNGQGGLCLAAQYAREETRLSTTANVNDFHAQWVFRKPSGSSGYTIQNKYNNHYVGGTSARWELVVCCNKYFGIRNTSTQKYLAIEDGQVTFQDQDMTDRKQCWELCSGRATDTSGNDYDLIYMDDDLLEVMIPWVGDKQGDLKHYIEKRATKKPPKDKGGWQLPAAGLIKKPKFNDIRQLLQELIEQWEWDVVNEEREQIQTLVSIDEAEARRLLGRRPHPDIVAAYQRSRSSTLFRIDRQGYFNIAGDRYVNIQGQYGDDSYFHIALPVGVRFGREQIRRFLRDSLDRSTSVTITPTTCKPPSGGPDYNRDPDSDGDNSWIKWTIAVVGTSAIKHSEL
- glycan array binding signal (z-score) [1]: 0.422
- glycan array binding signal (z-score) [2]: -0.45
- glycan array binding signal (z-score) [3]: -0.445
- glycan array binding signal (z-score) [4]: 0.052
- glycan array binding signal (z-score) [5]: 0.189
- glycan array binding signal (z-score) [6]: -0.388
- glycan array binding signal (z-score) [7]: -0.257
- glycan array binding signal (z-score) [8]: -0.438
- glycan array binding signal (z-score) [9]: -0.513
- glycan array binding signal (z-score) [10]: -0.446
- glycan array binding signal (z-score) [11]: -0.365
- glycan array binding signal (z-score) [12]: -0.385
- glycan array binding signal (z-score) [13]: -0.419
- glycan array binding signal (z-score) [14]: -0.479
- glycan array binding signal (z-score) [15]: -0.467
- glycan array binding signal (z-score) [16]: -0.453
- glycan array binding signal (z-score) [17]: -0.491
- glycan array binding signal (z-score) [18]: -0.514
- glycan array binding signal (z-score) [19]: 3.18
- glycan array binding signal (z-score) [20]: 2.95
- glycan array binding signal (z-score) [21]: 2.55
- glycan array binding signal (z-score) [22]: -0.401
- glycan array binding signal (z-score) [23]: -0.443
- glycan array binding signal (z-score) [24]: -0.5
- glycan array binding signal (z-score) [25]: -0.466
- glycan array binding signal (z-score) [26]: -0.47
- glycan array binding signal (z-score) [27]: -0.404
- glycan array binding signal (z-score) [28]: -0.448
- glycan array binding signal (z-score) [29]: -0.51
- glycan array binding signal (z-score) [30]: -0.485
